The values below come from the supplement of paper PMC11417369.

± gives the standard deviation of the averaged measurements. The list shows a part of the results.

The test relates to PfAP2-EXP AP2 domain (GST-tagged). In words: gcPBM binding intensity (ln(normalized median fluorescence intensity)); higher = stronger DNA binding. Summed up: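 Binding intensity is defined as the maximum Masliner-normalised natural-log median intensity across replicate spots for either probe orientation. It was measured on an Agilent 4 × 180k array of primer-extended double-stranded 36-bp intergenic genomic probes and negative controls, to which GST-tagged P. falciparum DNA-binding domains made in E. coli were applied for 1 h in 1× PBS with 1% milk, 0.2 mg/ml BSA, 0.5% salmon testes DNA and 0.03% Triton X-100. Detection was by Alexa488 anti-GST antibody and scanning at 488 nm.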
In the case of “TAATGCATTTTCGCATGTACATATTTCTCTTTATAT [XGTACX_site8915]”, the “gcPBM binding intensity (ln)” value was found to be 8.48 ± 0.071.

For “AAAATGTGATATGTAAATATATATGTATGTATATAT [CACACA_negctrl_site1748]”, the “gcPBM binding intensity (ln)” value stood at 8.54 ± 0.36.

As for “ATCTATATTTAATTTACACACAAAAAAAATTGTTGG [CACACA_site6582]”, the “gcPBM binding intensity (ln)” value was 8.54 ± 0.49.

Turning to “ATAAATATGTAAAAAACATGCAAAAAATTAAAGACA [TGCATGCA_site912]”, the “gcPBM binding intensity (ln)” value was 9.17 ± 0.3.

“TTATTACATAACAATATACACACTATTGATTAAAGA [CACACA_site2933]”: the “gcPBM binding intensity (ln)” value stood at 8.39 ± 0.41.

On to “TAAAAAAAAAGAAGCTGTACTAAAAAATTTATATTA [XGTACX_site7408]”, for which the “gcPBM binding intensity (ln)” value is 8.46 ± 0.48.

Turning to “GTTATTAAACAGAAAAGTACATATGTATATTAAAAT [XGTACX_site3724]”, the “gcPBM binding intensity (ln)” value was 8.8 ± 0.39.

On to “TTATTAAATAAAATCATGCACACAATATATATTTTA [CACACA_site2496]”, for which the “gcPBM binding intensity (ln)” value turned out to be 8.26 ± 0.33.

Turning to “AACGCACATATATTTATGTATATATATATATATATA [GTGCAC_negctrl_site478]”, the “gcPBM binding intensity (ln)” value worked out at 10.2 ± 0.31.

Regarding “TCATAGTAGAAACACACACACACACCCATATATATA [CACACA_site1737]”, the “gcPBM binding intensity (ln)” value is 8.81 ± 0.33.

In the case of “GGAAACAAAAAATATATACACACTAAACATAAAAAA [CACACA_site20]”, the “gcPBM binding intensity (ln)” value was 8.79 ± 0.38.

As for “GGGTTTTTTATTAATACATGCATGGAAACGCACTAT [TGCATGCA_site1000]”, the “gcPBM binding intensity (ln)” value was determined as 9.41 ± 0.35.

Take “AAATTCATAAAAATATTTTATAATTATATATAGAAT [TGCATGCA_negctrl_site343]”: the “gcPBM binding intensity (ln)” value came to 8.32 ± 0.44.

For the sequence “AAGAAAAACAATGAGATAAAGAAGAGAAAATATGTC [TGCATGCA_negctrl_site415]”, the “gcPBM binding intensity (ln)” value turned out to be 9.12 ± 0.45.

As for “ATATATATATAATTTGTACACACAAATATGCATATA [CACACA_site9136]”, the “gcPBM binding intensity (ln)” value was found to be 9.71 ± 0.13.

Consider “AGTGGAATGTATGATTTTCATTCCTTAAAATTTTAA [GTGCAC_negctrl_site521]”, for which the “gcPBM binding intensity (ln)” value worked out at 8.24 ± 0.5.

On to “TATTGATTTATAAACACACACTCGAAGATGTTTAAC [CACACA_site4760]”, for which the “gcPBM binding intensity (ln)” value is 8.44 ± 0.43.

“AATACTAAAAAGTGTACACATACATAAAAAATTGCA [CACACA_site5620]”: the “gcPBM binding intensity (ln)” value was 9.27 ± 0.26.

“AAGAAAAAAGTTATTAGTACACATTATAATAAAAAG [XGTACX_site3527]”: the “gcPBM binding intensity (ln)” value was determined as 8.76 ± 0.37.

On to “CATTATGTTGTAAATACACACATACATATACATACA [CACACA_site8143]”, for which the “gcPBM binding intensity (ln)” value stood at 8.51 ± 0.29.

As for “TAATTTTCTTTTTATCGTTTTTTTTTTTTTTTTTTT [XGTACX_negctrl_site432]”, the “gcPBM binding intensity (ln)” value is 8.59 ± 0.3.

Take “TATATCTCATAGTATACACACACACCCACCCACATA [CACACA_site8513]”: the “gcPBM binding intensity (ln)” value was 9.38 ± 0.61.

Consider “TATATATATGTAAATCGTACAAATTATATATATCAT [XGTACX_site2821]”, for which the “gcPBM binding intensity (ln)” value came to 8.37 ± 0.36.

Turning to “ATATATTATTTCTAGTGTACATACCCATATATAATA [XGTACX_site8902]”, the “gcPBM binding intensity (ln)” value came to 8.97 ± 0.33.

“ATAAATAAGATATATACACACATATCTATACATATT [CACACA_site6369]”: the “gcPBM binding intensity (ln)” value came to 8.28 ± 0.49.

Take “GGCTAAAAGGGGCACACACACAAAAAAAAAAAAAAA [CACACA_site3288]”: the “gcPBM binding intensity (ln)” value was 8.49 ± 0.17.

Regarding “ATTTAAGAAAAAAGTTGTACTTATTTATTTTTATTT [XGTACX_site5561]”, the “gcPBM binding intensity (ln)” value worked out at 8.18 ± 0.34.

“AATCCACTTTTTTATGTTATACAATATAAATTAAAT [XGTACX_negctrl_site446]”: the “gcPBM binding intensity (ln)” value stood at 8.61 ± 0.61.

Consider “ATTGAATTCCAACTGGTGCACCAGTAAGATTGAAAA [GTGCAC_site9895]”, for which the “gcPBM binding intensity (ln)” value is 8.985 ± 0.064.

As for “TAAAAAATAAATATATGTACATATTTATTTTTTTTT [XGTACX_site850]”, the “gcPBM binding intensity (ln)” value stood at 8.21 ± 0.35.

For “ATATTTTTTTTTTCGTGTACGCATAAATATATCTAA [XGTACX_site3360]”, the “gcPBM binding intensity (ln)” value came out at 8.86 ± 0.46.

“TAGATAAACAAGAAATGTACAAACGTAAATATGTTC [XGTACX_site2373]”: the “gcPBM binding intensity (ln)” value stood at 8.61 ± 0.39.

Turning to “AATATCCACATTAGGAGTACACAGCTAACTGTTTGA [XGTACX_site3357]”, the “gcPBM binding intensity (ln)” value is 8.39 ± 0.35.

For the sequence “TTGATTACACTGAAGTGTACATATATATATATATAT [XGTACX_site3532]”, the “gcPBM binding intensity (ln)” value is 10.1 ± 0.38.

As for “AAAAAAAAAAGAAACACACACATTTGTATATAATAT [CACACA_site2078]”, the “gcPBM binding intensity (ln)” value was determined as 8.66 ± 0.44.

As for “TTTTATATAAAATCGTGTACATACCATTTCCTATTA [XGTACX_site5159]”, the “gcPBM binding intensity (ln)” value was 8.86 ± 0.23.

Turning to “AAATAATAAAAAAAATGTACACGTAAATATTATATT [XGTACX_site8125]”, the “gcPBM binding intensity (ln)” value amounted to 8.88 ± 0.32.

Take “CATATAAAAATGTGCACACACACACCCATATATATT [CACACA_site1526]”: the “gcPBM binding intensity (ln)” value worked out at 8.76 ± 0.15.

For “AAAATTAATAAATAAACACACATATATATATATATA [CACACA_site2598]”, the “gcPBM binding intensity (ln)” value came out at 10.1 ± 0.44.

On to “GTGAAATATGCAAACACACACGAGAAAAATGTATAT [CACACA_site7488]”, for which the “gcPBM binding intensity (ln)” value is 8.93 ± 0.57.

In the case of “TTTTTGCCATATTACACACACACATGTAAACCCCCT [CACACA_site1647]”, the “gcPBM binding intensity (ln)” value worked out at 9.78 ± 0.6.

For the sequence “CAAAACAAAACGTATGCACACAATTAATATATTAAA [CACACA_site3405]”, the “gcPBM binding intensity (ln)” value is 8.83 ± 0.42.

“AACCCCGTGGAAATATGTACATATAAATATATAAAT [XGTACX_site2094]”: the “gcPBM binding intensity (ln)” value turned out to be 9.29 ± 0.47.

In the case of “TAAATAAGCACATACACACATACATACATACATAAA [CACACA_site4017]”, the “gcPBM binding intensity (ln)” value came out at 8.71 ± 0.52.
